About 150 (0.041%) of roughly 370,000 compounds were called active. Inconclusive results, whose numbers are uncertain, are shown with a selection of clear calls. Calls come from the whole dose curve; as a rule, active = well fitted inhibition curve with a large enough effect; inconclusive = small, poorly fitted or top-dose-only effect; inactive = flat fitted curve, though single readings scatter. No potency is given beside an inconclusive call; the fits are too rough.
These compounds were tested against Beta-lactamase (Escherichia coli (strain K12)) (UniProt P00811) (assay: qHTS Inhibitors of AmpC Beta-Lactamase (assay with detergent)). Settings: AmpC hydrolysis of nitrocefin, absorbance 480 nm, 0.01% Triton; activity change, negative = inhibition: at 114 µM (top of the series).
Sequence of UniProt P00811 (P00811 whole entry, looked up): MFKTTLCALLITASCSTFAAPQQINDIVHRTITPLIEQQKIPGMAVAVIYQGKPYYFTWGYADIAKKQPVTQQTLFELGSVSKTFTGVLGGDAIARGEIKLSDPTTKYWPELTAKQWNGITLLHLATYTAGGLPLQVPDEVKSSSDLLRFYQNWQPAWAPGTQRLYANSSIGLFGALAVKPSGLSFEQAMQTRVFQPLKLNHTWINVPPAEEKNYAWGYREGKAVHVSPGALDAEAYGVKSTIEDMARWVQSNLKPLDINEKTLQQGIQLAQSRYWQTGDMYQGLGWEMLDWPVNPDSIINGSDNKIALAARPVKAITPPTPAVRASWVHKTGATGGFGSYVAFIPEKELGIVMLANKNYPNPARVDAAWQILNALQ
In short: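 AmpC (5.3 nM in the dispensed reagent) in 20 mM phosphate pH 7.0 with 0.01% (detergent screen) or 0.0001% Triton X-100 was preincubated with compounds for 15 min at room temperature. Nitrocefin was then added from an 800 uM solution, and hydrolysis was followed at 480 nm.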
In the case of COC(=O)NNC(=O)C12CC3CC(CC(C3)C1)C2, the Potency is reported as inconclusive [inhibitor, full curve, poor fit].
In the case of CCOc1ccc2nc(N3CCCC(C(=O)NCCCN4CCOCC4)C3)sc2c1 (stereo not drawn), the Potency is reported as inconclusive [inhibitor, full curve, poor fit].
In the case of O=C(Nc1ccccc1F)c1cnc(N2CCCCC2)c2ccccc12, the “activity change, negative = inhibition” value is reported as inactive: -7.26%.
In the case of CC(C)(C)OC(=O)N1CCC(C(=O)N[C@@H](Cc2ccccc2)C(=O)O)(c2ccccc2)CC1, the Potency is reported as inconclusive [inhibitor, full curve].
With CCn1nc(C(=O)OCC(=O)NCCN2C(=O)CSC2=O)c2ccccc2c1=O the Potency was inconclusive [inhibitor, full curve, poor fit].
With Cc1cccc(OCCC(=O)Nc2ccc(C)c(S(=O)(=O)N3CCCCC3)c2)c1 the Potency was inconclusive [inhibitor, single point].
COc1cccc(C(C(=O)NCC2CCCO2)N(C(=O)Cn2nnc3ccccc32)c2ccc(NC(C)=O)cc2)c1 (stereo not drawn) was tested, and the Potency was inconclusive [inhibitor, single point].
In the case of O=C(NCCCN1CCCC1=O)Nc1ccc(Cl)cc1Cl, the “activity change, negative = inhibition” value is reported as inactive: 7.1%.
With Cc1sc(-c2ccccn2)nc1OC(=O)c1ccc(Cl)c(Cl)c1 the Potency was inconclusive [inhibitor, full curve].
COc1cccc(/C=C(/C(=O)OCC(=O)NC2CCCCCCC2)c2ccccc2)c1 was tested, and the “activity change, negative = inhibition” value was inactive: -8.41%.
In the case of Cc1cc(C)c(NC2=NS(=O)(=O)c3ccccc32)c(C)c1, the Potency is reported as inconclusive [inhibitor, full curve, poor fit].
CCCCNC(=S)N(C)/N=C/c1ccc(OCc2ccc(C(=O)OC)cc2)c(OC)c1 was tested, and the “activity change, negative = inhibition” value was inactive: -7.75%.
With O=C(O)c1ccc(S(=O)(=O)NCc2ccc3c(c2)OCO3)cc1 the “activity change, negative = inhibition” value was inactive: -11.4%.
For COc1cc(CN2CCN(Cc3cccc(OC)c3OC)CC2)cc(OC)c1, the “activity change, negative = inhibition” value was inactive: -0.73%.
For Cn1c(-c2cccc(Br)c2)cnc1NCc1ccccc1O, the Potency was inconclusive [inhibitor, partial curve, poor fit].
COc1ccc(N(CC(=O)NCCSc2ccccn2)S(=O)(=O)c2ccccc2)cc1OC was tested, and the Potency was inconclusive [inhibitor, full curve, poor fit].
CCNC(=O)COC(=O)C1CCN(S(=O)(=O)c2ccc3c(c2)OCCO3)CC1 was tested, and the Potency was inconclusive [inhibitor, single point].
With COc1ccc(/C=C/C(=O)c2c(O)n(CCC3=CCCCC3)c(=O)[nH]c2=O)cc1OC the Potency was inconclusive [inhibitor, partial curve, poor fit].
For CC1CCCCN1Cc1c(O)ccc2c(=O)c(-c3ccc(Cl)cc3)c(C(F)(F)F)oc12 (stereo not drawn), the “activity change, negative = inhibition” value was inactive: 4.3%.
Cc1ccc(OCCSc2nc3ccccc3n2CC(=O)N2CCOCC2)cc1 was tested, and the “activity change, negative = inhibition” value was inactive: -1.08%.
Cc1cnc(C(=O)NCC(=O)Nc2ccccc2Br)cn1 was tested, and the “activity change, negative = inhibition” value was inactive: -19.3%.
For Cc1ccc2oc(-c3ccccc3)nc2c1, the Potency was inconclusive [inhibitor, single point].
In the case of Cc1cccc(-n2c(C)nc3cc(C(=O)N4CCOCC4)ccc32)c1, the Potency is reported as inconclusive [inhibitor, full curve, poor fit].
In the case of O=C(CN1C(=O)NC(Cc2ccccc2)C1=O)Nc1ccc(OC(F)F)cc1 (stereo not drawn), the “activity change, negative = inhibition” value is reported as inactive: 0%.
COc1ccc(Nc2ncnc3c2cnn3Cc2ccccc2)cc1 was tested, and the Potency was inconclusive [inhibitor, full curve, poor fit].
In the case of CCN1C(=O)c2c(C)nc3ccccc3c2C1=O, the Potency is reported as inconclusive [inhibitor, full curve, poor fit].
For CC1(NC(=O)Cc2ccc(Cl)c(Cl)c2)CCS(=O)(=O)C1 (stereo not drawn), the Potency was inconclusive [inhibitor, full curve, poor fit].
With CC(=O)c1ccc(S(=O)(=O)N2CCN(C(=O)c3ccccc3Cc3ccccc3)CC2)cc1 the Potency was inconclusive [inhibitor, partial curve, poor fit].
For CN(C)C1C(=O)C(C(N)=O)=C(O)C2(O)C(=O)C3=C(O)c4c(O)cccc4C(C)(O)C3C(O)C12 (stereo not drawn), the Potency was inconclusive [inhibitor, full curve].
With Cc1ccc(C(=O)Nc2ncccc2O)cc1S(=O)(=O)N1CCCCC1 the “activity change, negative = inhibition” value was inactive: 0%.
With O=C(CNC(=O)c1ccco1)NCC(=O)OC(C(=O)c1ccccc1)c1ccc(Cl)cc1 (stereo not drawn) the Potency was inconclusive [inhibitor, partial curve].
For Cc1cc(NC(=O)CSCc2nc(-c3cccc(Cl)c3)oc2C)no1, the Potency was inconclusive [inhibitor, partial curve, poor fit].
With CCOc1ccccc1CNC(=O)Cn1c(=O)c2cccn2c2ccc(F)cc21 the “activity change, negative = inhibition” value was inactive: 24.6%.
COc1ccccc1NC(=O)CC1Sc2ccc(C(F)(F)F)cc2NC1=O (stereo not drawn) was tested, and the “activity change, negative = inhibition” value was inactive: 10.1%.
Cc1cc(C(=O)Cn2nnc3ccccc3c2=O)c(C)n1-c1c(C)n(C)n(-c2ccccc2)c1=O was tested, and the “activity change, negative = inhibition” value was inactive: 1.04%.
CCCCn1c(=O)c(CCC(=O)OCC(=O)NC(C)c2ccccc2)nc2ccccc21 (stereo not drawn) was tested, and the Potency was inconclusive [inhibitor, single point].
For COCCN1CCc2nc(SCC(=O)Nc3ccc(C)c(Cl)c3)[nH]c(=O)c2C1, the “activity change, negative = inhibition” value was inactive: 24.6%.
In the case of Cc1ccc(NC(=O)CSc2nnc(-c3cccnc3)s2)cc1, the Potency is reported as inconclusive [inhibitor, full curve, poor fit].
For Cc1cc(C(=O)NCC2CCCO2)n(-c2ccccc2)n1 (stereo not drawn), the Potency was inconclusive [inhibitor, full curve, poor fit].
In the case of C[C@@H]1CN(C2CCN(Cc3nc(C(c4ccccc4)c4ccccc4)no3)CC2)C[C@H](C)O1, the Potency is reported as inconclusive [inhibitor, single point].
O=C(Nc1cccc(-n2cccn2)c1)C1CCCN(Cc2cc3ccccc3[nH]2)C1 (stereo not drawn) was tested, and the Potency was inconclusive [inhibitor, full curve, poor fit].
With CC(C)N(Cc1nc(-c2ccccc2)no1)C(=O)CN1C(=O)c2ccccc2C1=O the Potency was inconclusive [inhibitor, single point].
With COc1ccc(/C=N/n2c(-c3n[nH]c4c3CCC4)n[nH]c2=S)cc1OC the Potency was inconclusive [inhibitor, full curve, poor fit].
With CC1CCN(C(=O)c2cccc(S(=O)(=O)N3CCCCC3)c2)CC1 the Potency was inconclusive [inhibitor, full curve, poor fit].
For Cc1cccc(N2CCN(C(=O)Cn3c(=O)[nH]c4ccsc4c3=O)CC2C)c1 (stereo not drawn), the Potency was inconclusive [inhibitor, full curve, poor fit].
For CCN(CC)S(=O)(=O)c1cccc(C(=O)OCC(=O)NCc2ccccc2OC)c1, the Potency was inconclusive [inhibitor, full curve, poor fit].
With FC(F)(F)c1cccc(/C=N/NC(=S)NC2CCCCC2)c1 the Potency was inconclusive [inhibitor, partial curve].
In the case of O=C1NC(=O)C(CCc2ccncc2)(c2ccccc2)C(=O)N1, the Potency is reported as inconclusive [inhibitor, full curve, poor fit].
In the case of Cc1cc(O)c2c(C)c(CC(=O)NCc3ccccc3Cl)c(=O)oc2c1, the “activity change, negative = inhibition” value is reported as inactive: 10.5%.
COC(=O)c1ccc(-n2nnnc2SCC(=O)Nc2ccccc2OC)cc1 was tested, and the Potency was inconclusive [inhibitor, full curve].
For CCCCCc1nc2c(=O)[nH]c3ccccc3c2o1, the “activity change, negative = inhibition” value was inactive: 1.16%.
With Cc1ccc(OCc2ccc(C(=O)NN)o2)cc1C the “activity change, negative = inhibition” value was inactive: -0.156%.
CC(C)n1c(N2CCN(C(=O)Nc3ccccc3)CC2)nc2ccccc21 was tested, and the Potency was inconclusive [inhibitor, single point].
For COc1ccc(-c2cn3ccsc3n2)cc1, the Potency was inconclusive [inhibitor, single point].
O=C(C[n+]1ccc(-c2ccccc2)cc1)Nc1ccc([N+](=O)[O-])cc1 was tested, and the Potency was inconclusive [inhibitor, partial curve].
For COc1cccc(C(c2nnnn2CCc2ccccc2)N2CCN(c3ccccc3)CC2)c1OC (stereo not drawn), the Potency was inconclusive [inhibitor, partial curve, poor fit].
COC(=O)c1sc(NC(=S)NC(=O)c2cccc(Br)c2)nc1C was tested, and the Potency was inconclusive [inhibitor, partial curve, poor fit].
For COc1ccc(-n2c(COc3cccc4ccccc34)nnc2SCC(=O)NCc2ccco2)cc1, the “activity change, negative = inhibition” value was inactive: 2.69%.
In the case of CCN(CC)S(=O)(=O)c1cccc(NC(=O)CCNC(=O)c2ccc([N+](=O)[O-])cc2)c1, the “activity change, negative = inhibition” value is reported as inactive: 2.23%.
For Cc1ccc(N2CC(NC(=O)CCCc3ccccc3)CC2=O)cc1 (stereo not drawn), the “activity change, negative = inhibition” value was inactive: 1.53%.
With O=C(O)Cn1c(O)c(C2=c3ccccc3=NC2=O)sc1=O the “activity change, negative = inhibition” value was inactive: -2.93%.
Cc1cccc(OCCCN2CCOCC2)c1 was tested, and the Potency was inconclusive [inhibitor, single point].
For CCCN1C(=O)C(=O)N(CC(=O)c2cc(C)n(C3CC3)c2C)C1=O, the Potency was inconclusive [inhibitor, full curve, poor fit].
COc1cc(/C=N/n2cnn(Cc3ccccc3Cl)c2=S)cc(OC)c1OC was tested, and the Potency was inconclusive [inhibitor, full curve].
COc1ccc(C(=O)Nc2nc(C)c3cc4c(cc3n2)OCO4)cc1 was tested, and the Potency was inconclusive [inhibitor, partial curve, poor fit].
For COc1ccc(-c2nn(C)c3sc(C(=O)NCCN(C)C)cc23)cc1OC, the Potency was “inactive”.
CCOc1ccc(NC(=O)NCCN2CCN(c3cc(Cl)ccc3C)CC2)cc1 was tested, and the “activity change, negative = inhibition” value was inactive: 18.2%.
Cc1cc2nncn2c(Cc2ccccc2)n1 was tested, and the Potency was inconclusive [inhibitor, partial curve].

Reference: PubChem BioAssay AID485294 (National Center for Advancing Translational Sciences (NCATS), 2010)
Note: nearly all actives have a fitted effect of over 25% in size.
Potency is the fitted concentration of half-maximal effect; tags give direction and shape of the fitted curve.
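Throughout, for activity change, negative = inhibition: 0% = no-compound wells and -100% = no-enzyme wells.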
